According to publication PMC6919601, “Identification of Plasmodium dipeptidyl aminopeptidase allosteric inhibitors by high throughput screening” (PLoS ONE, 2019):
Out of some 110,000 compounds screened, about 230 (0.21%) showed an effect of 50% or more. This is one part of the list. Where a SMILES comes first, the peptide text is derived from it.

Each compound was assayed against DPAP1 (Plasmodium falciparum, UniProt Q8IIJ9) (assay: primary screen, percent inhibition; read by cleavage of a fluorogenic dipeptide substrate; higher = more effect of the substance).
Design: species or system P. falciparum D10 trophozoite lysates; single well
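Note: 30 min substrate incubation versus DMSO and 10 µM JCP410 controls.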

DPAP1, sequence (Q8IIJ9 whole entry, looked up): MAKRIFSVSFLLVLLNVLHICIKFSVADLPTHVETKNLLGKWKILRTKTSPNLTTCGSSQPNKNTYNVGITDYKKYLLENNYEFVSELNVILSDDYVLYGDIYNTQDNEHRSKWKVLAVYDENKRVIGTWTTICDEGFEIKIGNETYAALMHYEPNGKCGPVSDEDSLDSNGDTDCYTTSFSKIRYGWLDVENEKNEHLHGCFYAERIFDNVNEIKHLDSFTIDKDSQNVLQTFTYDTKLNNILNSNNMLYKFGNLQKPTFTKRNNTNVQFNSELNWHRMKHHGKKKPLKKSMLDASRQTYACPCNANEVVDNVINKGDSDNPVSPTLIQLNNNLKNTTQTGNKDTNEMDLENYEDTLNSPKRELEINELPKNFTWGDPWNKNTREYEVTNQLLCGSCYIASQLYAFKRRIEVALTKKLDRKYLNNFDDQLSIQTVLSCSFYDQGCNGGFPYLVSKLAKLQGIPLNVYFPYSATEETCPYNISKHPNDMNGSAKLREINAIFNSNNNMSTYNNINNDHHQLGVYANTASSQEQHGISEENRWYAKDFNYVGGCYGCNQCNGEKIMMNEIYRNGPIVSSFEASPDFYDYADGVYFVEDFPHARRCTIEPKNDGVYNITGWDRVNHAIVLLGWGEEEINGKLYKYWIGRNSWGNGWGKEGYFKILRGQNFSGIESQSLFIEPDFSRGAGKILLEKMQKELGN

| SMILES | % Inhibition @ 10 uM [%] |
| --- | --- |
| CN(C)c1nc(Cl)nc(NCCOc2ccccc2)n1 | -7.81 |
| CSc1ccc(/C=C2/NC(=S)NC2=O)cc1 | 1.88 |
| CCOc1cc(/C=C2\SC(=O)N(C)C2=O)ccc1OCc1ccc(C(=O)O)cc1 | -2.14 |
| O=C1C2CCCN2C(c2c(F)cccc2Cl)N1c1nccs1 (stereo not drawn) | -0.499 |
| Cc1ccccc1Cn1c(SCc2ccc(C(=O)NCCN3CCCC3)cc2)nc2ccncc21 | -1.6 |
| COc1cc(S(=O)(=O)N2CCC(C(N)=O)CC2)c(C)cc1C | 1.93 |
| COc1ccc(C(=O)Nc2cc(Cl)cc(Cl)c2)cc1OC | 0.823 |
| CCN(CC)C(=O)CN(c1ccc(OC)c(Cl)c1)S(=O)(=O)c1ccc(C)cc1 | -5.88 |
| Cc1ccc(C(=O)CCC(=O)Nc2nnc(C)s2)cc1 | 1.88 |
| OC(CC(O)c1ccccc1)CN1CCOCC1 (stereo not drawn) | 0.472 |
| C/C=C1/C(C)C(C(F)(F)F)(C(F)(F)F)C(C#N)=C(N)N1c1ccc(C(N)=O)cc1 (stereo not drawn) | -4.75 |
| O=C(NCc1ccco1)c1cc(-c2ccccc2F)no1 | -7.67 |
| OCCn1c(CO)nc2ccccc21 | 3.32 |
| Cc1cc(C)n2nc(SCc3cc(=O)n4ccccc4n3)nc2n1 | -0.406 |
| CCCCCCNC(=O)CC(NS(=O)(=O)c1ccc(OC)cc1)C(C)C (stereo not drawn) | 1.27 |
| CCN(CC)CCNC(=O)c1nnc(Cc2ccc(F)cc2)o1 | 1.51 |
| CCCc1nc2sc3c(Cl)ncnc3c2c2c1COC(C)(C)C2 | -3.24 |
| COCCNC(=O)c1ccc2c(c1)sc1nc(-c3ccc(C)cc3)cn12 | -1.48 |
| CC(C)(C)c1ccc(-c2cc(N)[nH]n2)cc1 | -2.88 |
| CC[C@H](NC(=O)[C@H](Cc1ccccc1)NC(C)=O)C(=O)c1nc2ccccc2o1 | -5.21 |
| O=C(O)c1cccc(NC(=O)c2c(C(=O)O)cccc2[N+](=O)[O-])c1 | 0.266 |
| COc1ccc(-c2csc(/C(C#N)=C/c3ccc(Cl)cc3Cl)n2)cc1 | 1.41 |
| O=C1c2ccccc2Cc2ccccc21 | 4.11 |
| CCCNC(=O)C1CCCN(S(=O)(=O)N2CCC3(CC2)OCCO3)C1 (stereo not drawn) | 2 |
| O=C(O)CCCC(=O)NCc1ccc(C(=O)O)cc1 | -2.9 |

| SMILES | % Inhibition @ 10 uM [%] |
| --- | --- |
| O=[N+]([O-])c1ccccc1S(=O)(=O)Nc1ccccc1Cl | -4.85 |
| Cc1cccc(-c2nc(CSc3nncn4c3cc3occc34)c(C)o2)c1 | 6.94 |
| Cc1cc(NC(=O)c2cccn(OCc3ccccc3)c2=O)no1 | -3.44 |
| CCOC(=O)N1CCC(NC(=O)c2ccc3nc(/C=C(\O)c4ccc(OC)cc4)c(O)nc3c2)CC1 | -1.59 |
| COc1ccccc1/C=C1\N=C(c2ccc(C(C)(C)C)cc2)OC1=O | 6.11 |
| Cc1cc(=O)oc2c1c(C)nn2-c1ccc(Cl)cc1 | -1.85 |
| O=c1c(-c2ccc3c(c2)OCCO3)coc2cc(O)cc(O)c12 | -5.28 |
| CCOC(=O)c1ccc(OC)c(S(=O)(=O)N2CCOCC2)c1 | -0.357 |
| Cc1sc2nc(NC(=O)c3ccccc3)sc(=O)c2c1C | 3 |
| COc1ccc(/C=C2\N=C(c3ccc(Cl)cc3Cl)OC2=O)c(OC)c1OC | 0.434 |
| CCOc1cc(/C=C2/NC(=O)N(CC)C2=O)ccc1OC | -15.4 |
| COc1cccc(CSc2nc3ccncc3[nH]2)c1 | 4.83 |
| CCc1nn(CC(=O)NCc2ccccc2)c(=O)c2cc3sccc3n12 | -7.1 |
| Cc1nn(Cc2ccc(F)cc2)c(C)c1NC(=O)CC12CC3CC(CC(C3)C1)C2 | 0.931 |
| CCCCO/C(O)=C1\C(C)=NC2=C(C(=O)CCC2)C1c1cccc(O)c1 (stereo not drawn) | 4.1 |
| O=C1OC(c2ccc(Cl)c(Cl)c2)=N/C1=C\c1ccccc1F | -6.38 |
| CCCCN(Cc1ccco1)C(=O)Cn1ncc2c1-c1ccccc1OC2 | -0.692 |
| CCc1c2c(nc3sc(C(=O)Nc4nsc(-c5ccccc5)n4)c(N)c13)CC(C)(C)CC2=O | 41.9 |
| CCc1ccccc1N(CC(=O)NCc1ccco1)S(=O)(=O)c1ccc(C)cc1 | -1.99 |
| Cc1cc(C)nc(SCC(=O)Nc2cccc(C(F)(F)F)c2)n1 | -3.37 |
| CCOCCCNC(=O)C1CCCN(C(=O)c2cnn(-c3ccccc3)c2-n2cccc2)C1 (stereo not drawn) | -2 |
| O=C(NCc1cccnc1)Nc1ccc(Cl)cc1 | -0.67 |
| Cc1n[nH]c(C)c1S(=O)(=O)N1CCCC(C(=O)NC2CCCCC2)C1 (stereo not drawn) | 2.39 |
| Cc1nc2ccccc2n1CCOc1ccc(Br)cc1 | -9.1 |
| CCOC(=O)c1sc(NC(=O)COc2ccccc2Br)nc1C | 0.611 |

| SMILES | % Inhibition @ 10 uM [%] |
| --- | --- |
| O=C1/C(=C/C=C/c2ccccc2[N+](=O)[O-])Sc2ccccc21 | -0.294 |
| Cc1ccc(-n2nc3c(=O)n(CCCC(=O)NCCc4ccccc4C)nc(C)c3c2C)cc1 | -3.43 |
| COc1ccc(S(=O)(=O)N2CCN(c3ccc(Cl)c(Cl)c3)CC2)cc1 | 3.53 |
| COc1cc(OC)cc(C(=O)Nc2ccccc2C(=O)NCc2ccco2)c1 | -2.34 |
| O=C(Nc1ccccc1Br)c1cccc([N+](=O)[O-])c1 | -4.31 |
| CCCCc1ccc(NC(=O)C(C)NS(=O)(=O)c2ccc(C)cc2)cc1 (stereo not drawn) | -5.01 |
| CC(C)(C)c1ccc(S(=O)(=O)NCc2ccc(C(=O)O)cc2)cc1 | -1.38 |
| CCCn1c(=O)c(C(=O)Nc2cc(Cl)ccc2OC)c(O)c2ccccc21 | -7.5 |
| COc1ccc(Cc2nn[nH]n2)cc1OC | 5.61 |
| O=C(NCCN1CCOCC1)c1cnn2c(C(F)(F)F)cc(-c3ccc(Br)cc3)nc12 | -4.21 |
| O=C(NCCc1csc2nc(-c3ccccc3)nn12)c1ccc2c(c1)OCO2 | 3.72 |
| CC1CCCCN1C1CC(=O)N(c2ccc(Br)cc2)C1=O (stereo not drawn) | -5.46 |
| Cc1n[nH]c(C)c1Nc1cnn(C23CC4CC(CC(C4)C2)C3)c(=O)c1Cl | -1.66 |
| Cc1ccn2cc(-c3cccc(NS(=O)(=O)c4ccccc4)c3)nc2c1 | -4.15 |
| CNC(=O)CNC(=O)CNC(=O)c1ccccc1 (HELM PEPTIDE1{[O=C(c1ccccc1)[*:2]].G.G.[CN[*:1]]}$$$$V2.0) | -3.48 |
| CC1CCN(S(=O)(=O)N2CCCC(C(=O)NCCN3CCCCC3)C2)CC1 (stereo not drawn) | -1.81 |
| COC(=O)c1conc1-c1ccc(Cl)cc1Cl | -2.71 |
| O=C(Nc1ccc(NC(=O)c2cc(S(=O)(=O)N3CCCCC3)ccc2Cl)cc1)c1ccccc1 | 7.35 |
| CN1C2CCC1(C(=O)c1ccccc1)C(C(=O)O)C(O)C2 (stereo not drawn) | 3.72 |
| COc1ccc(Cn2c(=O)c3ccccc3n3c(-c4ccc(F)c(F)c4)nnc23)cc1 | 0.00665 |
| COc1cc(N)c(-c2ccc3cc(OC)c(OC)cc3n2)cc1OC | -0.0555 |
| CC(C)c1ccc(/C=C2/NC(=O)N(Cc3ccc(F)cc3)C2=O)cc1 | -3.41 |
| Oc1oc(-c2ccc(Br)cc2)nc1/C=N/c1cccnc1 | 6.11 |
| Cc1ccc(-c2noc(CN(C(=O)COc3cc(C)ccc3C)C(C)C)n2)cc1 | -3.37 |
| Cc1ccc2c(c1)Cc1c(O)nc(-c3ccccc3O)nc1O2 | 6.98 |

| SMILES | % Inhibition @ 10 uM [%] |
| --- | --- |
| COCCCNC(=O)c1cnn2c(C)c(Cc3ccc(C)cc3)c(C)nc12 | -2.14 |
| C=CCOC(=O)C1=C(C)N=C2CC(C)(C)CC(O)=C2C1c1cc2c(cc1Cl)OCO2 (stereo not drawn) | 4.54 |
| Cc1nc(NC(=O)c2ccccc2O)sc1C(C)C | 5.98 |
| CCC(C)(C)C1CCc2c(sc(NC(C)=O)c2C#N)C1 (stereo not drawn) | 8.44 |
| COCCN1C(=O)c2ccccc2C(C(=O)N2CCN(c3ccccn3)CC2)C1c1ccc(F)cc1 (stereo not drawn) | -7.43 |
| N#CC1=C(N)Oc2[nH]nc(-c3ccncc3)c2C12C(=O)Nc1ccccc12 (stereo not drawn) | -1.06 |
| OC(COCc1ccccc1)Cn1cnc2ccccc21 (stereo not drawn) | 5.04 |
| O=C(O)c1ccc(NC(=O)c2ccc(Br)cc2)cc1 | -1.98 |
| COc1ccc(CN2CC(C(=O)NCc3ccccn3)CC2=O)cc1 (stereo not drawn) | -3.58 |
| Clc1ccc2c(Cl)c3c(nc2c1)CCCC3 | 0.231 |
| O=[N+]([O-])c1cccc(-c2nnco2)c1 | -1.82 |
| O=C(O)c1ccc(N2C(=O)CC(N3CCN(c4ccc(Cl)cc4)CC3)C2=O)cc1 (stereo not drawn) | -1.38 |
| COC(=O)c1ccc(OCC2c3cc(OC)c(OC)cc3CCN2C(=O)c2ccco2)cc1 (stereo not drawn) | -6.12 |
| COc1ccccc1OC(C)C(=O)N(Cc1ccco1)C1CCS(=O)(=O)C1 (stereo not drawn) | -2.85 |
| Nc1nc(SCC(=O)N2CCCCC2)nc2sc3c(c12)CCCC3 | 11.9 |
| N#Cc1ccc(Cn2c(=O)n(CCC(=O)NCCc3ccc(Cl)cc3)c(=O)c3sccc32)cc1 | 0.0221 |
| Cc1cc(C)c2c(N)c(C(N)=O)sc2n1 | -1.98 |
| CCc1c(N(C)C)nc2n(c1=O)CCS2 | -4.75 |
| O=S(=O)(NCc1ccc2c(c1)OCO2)c1cc(Br)c(Br)s1 | 4.35 |
| CCc1ccc(OCC(O)Cn2c(SC(C)C)nc3c2c(=O)[nH]c(=O)n3C)cc1 (stereo not drawn) | -0.366 |
| Cc1ccc(/C=C2\Sc3ccccc3C2=O)c(O)c1 | 22.9 |
| COCCCn1c(=O)c2sccc2n2c(CCCC(=O)N(C)Cc3ccco3)nnc12 | 0.351 |
| CC1CCCC(NC(=O)c2ccc(N3CCOCC3)cc2)(C(=O)NCC#N)C1 (stereo not drawn) | 3.1 |
| O=C(Nc1nnc(Cc2ccc(F)cc2)s1)C1CCCCC1 | -0.142 |
